Reference: PubChem BioAssay AID588342 (National Center for Advancing Translational Sciences (NCATS), 2011)
About 25,000 (6.9%) of roughly 360,000 compounds were called active. This list was built around the results that the source calls inconclusive (neither active nor inactive); the mix of calls is not that of the screen. Calls come from the whole dose curve; as a rule, active = well fitted inhibition curve with a large enough effect; inconclusive = small, poorly fitted or top-dose-only effect; inactive = flat fitted curve, though single readings scatter. A potency beside an inconclusive call is a rough fit, not a confirmed value.

target: Luciferin 4-monooxygenase (Photinus pyralis) (UniProt P08659); assay: qHTS profiling assay for firefly luciferase inhibitor/activator using purifed enzyme and Km concentrations of substrates (counterscreen for miR-21 project); details: purified FLuc, luminescence inhibition; series mostly up to 57.5 µM; note: nearly all actives have a fitted effect of over 55% in size
Chain of UniProt P08659 (P08659 whole entry, looked up): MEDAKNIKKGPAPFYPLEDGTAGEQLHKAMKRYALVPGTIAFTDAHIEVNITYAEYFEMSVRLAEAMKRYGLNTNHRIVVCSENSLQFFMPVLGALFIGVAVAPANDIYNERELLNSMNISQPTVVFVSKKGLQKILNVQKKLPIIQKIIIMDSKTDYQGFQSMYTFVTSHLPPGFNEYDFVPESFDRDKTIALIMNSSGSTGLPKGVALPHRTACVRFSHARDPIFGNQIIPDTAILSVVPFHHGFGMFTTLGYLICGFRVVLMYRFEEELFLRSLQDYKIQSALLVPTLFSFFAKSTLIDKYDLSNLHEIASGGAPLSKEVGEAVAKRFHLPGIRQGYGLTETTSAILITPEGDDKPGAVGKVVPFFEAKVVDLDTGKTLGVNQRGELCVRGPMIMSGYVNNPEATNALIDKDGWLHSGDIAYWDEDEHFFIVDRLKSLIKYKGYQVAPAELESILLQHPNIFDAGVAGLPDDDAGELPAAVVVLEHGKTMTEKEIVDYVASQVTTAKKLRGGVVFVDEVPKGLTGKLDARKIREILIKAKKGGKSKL
Outline: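 Purified P. pyralis luciferase (10nM final) with 10uM D-luciferin and 10uM ATP (Km levels) in 50mM Tris acetate pH 7.5, 10mM Mg acetate, 0.01% Tween-20, 0.05% BSA; qHTS 6-point titration, ~60 µM downward; luminescence read.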
Potency is the fitted concentration of half-maximal effect; tags give direction and shape of the fitted curve.

SMILES | Potency
CCOC(=O)c1ccc(N2CCN(c3cc(C)ccc3C)CC2)c(NC(=O)Nc2ccccc2)c1 | inactive
CCN1C(=O)c2cccc3c(NC(=O)c4ccc(OC)c(OC)c4)ccc1c23 | inactive
COC(=O)c1ccc(CSc2nnc(Nc3ccc(C)cc3)s2)o1 | inconclusive: 37.9 µM [inhibitor, partial curve, poor fit]
O=C(O)CSc1c2c(nc3cc(C(=O)Nc4ccc(F)c(Cl)c4)ccc13)CCC2 | inconclusive: 26.9 µM [inhibitor, partial curve]
Cc1ccc(NC(=O)CSc2nc3c(oc4ccccc43)c(=O)n2-c2ccc(F)cc2)c(C)c1 | inactive
COc1cccc(COCC(O)CN2CCC(C(N)=O)CC2)c1 (stereo not given) | inactive
COc1cccc(C(=O)N2c3cc(C)ccc3C(C)(c3ccccc3)CC2(C)C)c1 (stereo not given) | inactive
COc1ccc(CCNc2nc(-c3cccnc3)cs2)cc1OC | active: 12 µM
Nc1nc2c(s1)CCc1ccccc1-2 | inconclusive: 37.9 µM [inhibitor, partial curve, poor fit]
CC(C)CC(=O)Nc1cc2nn(-c3ccccc3)nc2cc1Cl | active: 1.51 µM
COc1cc(CNc2ccc(N3CCCC3)cc2)ccc1OCc1ccccc1 | active: 6.01 µM
Cc1ccc(O)c(NC(=O)c2cccc(NC(=O)c3ccco3)c2)c1 | inconclusive: 30.1 µM [inhibitor, partial curve]
CN(C)c1cccc(C(=O)OCCCC(=O)c2ccc(F)cc2)c1 | inactive
CCOC(=O)C1(CCc2ccccc2)CCN(C(=O)c2cc(C)nc(C)n2)CC1 | inconclusive: 37.9 µM [inhibitor, partial curve, poor fit]
CC(=O)Nc1ccc(-c2nc3ccc(NC(C)=O)cc3o2)cc1 | inconclusive: 19 µM [inhibitor, partial curve]
CC(C)Oc1cccc(-c2cc(C(=O)N3CCN(c4ncccn4)CC3)c3ccccc3n2)c1 | active: 1.35 µM
O=C(CCNC(=O)c1ccc(Br)cc1)Nc1cccc(S(=O)(=O)N2CCCCC2)c1 | inactive
COc1ccc(CNCc2cn(-c3cccc(F)c3)nc2-c2ccc(C)o2)cc1 | inconclusive: 37.9 µM [inhibitor, single point]
Cc1ccc(NC(=O)c2ccc3c(c2)C(=O)N(c2ccccc2C)C3=O)nc1 | inconclusive: 6.75 µM [inhibitor, partial curve, poor fit]
CCOC(=O)c1sc(NC(=O)Nc2ccc(F)cc2)nc1C | active: 1.51 µM
O=c1c2ccccc2nc2oc3ccccc3n12 | active: 7.57 µM
COc1ccc2c(C)c(CC(=O)NCc3ccc(C)cc3)c(=O)oc2c1OC | inactive
CCn1c(CCc2ccccc2)nc2ccccc21 | active: 16.9 µM
CCOC(=O)c1c(C)[nH]c(C2=NNC(=Nc3cccc(Cl)c3)SC2)c1C | inconclusive: 37.9 µM [inhibitor, partial curve, poor fit]

SMILES | Potency
COC(=O)CSc1nc(-c2cccs2)ccc1C#N | inconclusive: 21.3 µM [inhibitor, single point]
CCCCC(Sc1nc2cc3c(cc2c(=O)n1CCCC(=O)NCc1ccc(OC)cc1)OCO3)C(=O)OCC (stereo not given) | inactive
COc1ccc(N=CC2=C(O)c3ccccc3C2=O)cc1 | active: 0.151 µM
COc1ccc(C(=O)/C=C/C(=O)N(CC(=O)NC2CCCCC2)Cc2cccs2)c(O)c1 | inconclusive: 10.7 µM [inhibitor, partial curve, poor fit]
N#CCSc1nnc(COc2cccc3ccccc23)n1-c1ccccc1 | inactive
COc1cc(NC(=O)C2CCCN(S(=O)(=O)c3ccc4c(c3)oc(=O)n4C)C2)c(C(=O)O)cc1OC (stereo not given) | inconclusive: 10.7 µM [inhibitor, partial curve]
O=C(Nc1ccc2c(c1)Cc1ccccc1-2)c1ccc(Br)o1 | inconclusive: 3.01 µM [inhibitor, full curve]
O=C(Nc1nnc(CCc2ccccc2)s1)c1cccc(F)c1 | inconclusive: 7.57 µM [inhibitor, full curve]
COc1cccc(Cn2cccc(NC(=O)NC3CCCCC3)c2=O)c1 | inconclusive: 21.3 µM [inhibitor, single point]
CS(=O)(=O)N1CCc2cc(C(=O)Nc3ccccc3Cl)ccc21 | inconclusive: 23.9 µM [inhibitor, partial curve]
COc1cc(C)c(C(=O)Oc2cc(C)c(C(=O)O)c(O)c2)c(O)c1 | active: 19 µM
CCOc1ccc(NCC(=O)c2ccc(C)cc2)cc1 | inconclusive: 6.01 µM [inhibitor, full curve]
CC1CCCN(C(=O)CSc2nnc3ccccn23)C1 (stereo not given) | inactive
O=C(Nc1nc2n(n1)C(c1ccccc1)C=C(c1ccccc1)N2)c1ccc(Cl)c([N+](=O)[O-])c1 (stereo not given) | inconclusive: 37.9 µM [inhibitor, partial curve, poor fit]
CCOC(=O)c1ccc(N2C(=O)c3n[nH]c(-c4cccs4)c3C2c2ccc(C(C)(C)C)cc2)cc1 (stereo not given) | inactive
CCc1cccc(NC(=O)Cn2nc(-c3ccc(OC)cc3)ccc2=O)c1 | inconclusive: 37.9 µM [inhibitor, single point]
Cc1c(C(=O)Nc2ccc3c(c2)CCC3)cccc1[N+](=O)[O-] | active: 13.5 µM
O=C(Nc1nc2ccc(S(=O)(=O)N3CCCCC3)cc2s1)c1cccnc1 | inconclusive: 23.9 µM [inhibitor, partial curve, poor fit]
COC(=O)COc1ccc(C2Nc3c(Cl)ccc(C(=O)O)c3C3C=CCC32)cc1 (stereo not given) | inconclusive: 21.3 µM [inhibitor, partial curve, poor fit]
COc1cccc(-c2nc(-c3ccccc3)[nH]c(=O)c2C#N)c1 | inconclusive: 26.9 µM [inhibitor, single point]
COc1cccc(C(=O)Nc2cc3c(cc2C(=O)c2ccc(C)cc2)OCCO3)c1 | inactive
Cc1ccc2c(c1)c1ccc3c(c1n2C)C(=O)C=CC3=O | inconclusive: 7.57 µM [inhibitor, partial curve]
Cc1ccc(C(=O)N2CCN(c3nc4ccccc4n3C)CC2)cc1 | inactive
O=C(O)CCCCn1c(SCc2ccccc2Cl)nc2ccsc2c1=O | inconclusive: 23.9 µM [inhibitor, partial curve]

SMILES | Potency
Cc1ccc(S(=O)(=O)N(CC(=O)Nc2ccccc2C(=O)O)c2ccccc2)cc1 | inconclusive: 10.7 µM [inhibitor, partial curve, poor fit]
CN1C(=O)c2cccc3c(S(=O)(=O)Nc4ccccn4)ccc1c23 | inactive
COc1ccc(/C=N/NC(=O)CNC(=O)c2ccc3c(c2)OCCO3)cc1OC | inconclusive: 37.9 µM [inhibitor, single point]
CCOC(=O)C1=C(C)Nc2ccccc2S1 | inconclusive: 21.3 µM [inhibitor, single point]
CCOC(=O)c1c(-c2ccccc2)oc2ccc(O)cc12 | inconclusive: 37.9 µM [inhibitor, single point]
Cc1cc(N2CCOCC2)nc(-c2ccccc2O)n1 | inconclusive: 37.9 µM [inhibitor, partial curve, poor fit]
O=C(O)c1ccc(NC(=S)NC(=O)c2cccc(COc3ccccc3)c2)cc1 | inconclusive: 37.9 µM [inhibitor, single point]
O=C(COc1ccccc1Br)NCc1ccco1 | inconclusive: 23.9 µM [inhibitor, single point]
COc1ccccc1CNC(=O)c1ccc(-c2nc(CN3CCc4ccccc43)c(C)o2)cc1 | inactive
COc1ccc(NC(=O)c2cccn2-c2nnc(N3CCCCC3)s2)cc1 | inconclusive: 23.9 µM [inhibitor, partial curve]
O=C(Nn1cnc2ccccc2c1=O)c1ccccc1Cl | inconclusive: 26.9 µM [inhibitor, partial curve, poor fit]
Nc1cnn(Cc2ccccc2F)c1 | inconclusive: 9.53 µM [inhibitor, partial curve]
CC(=O)c1cccc(NC(=O)COC(=O)c2n[nH]c3ccccc23)c1 | inconclusive: 26.9 µM [inhibitor, partial curve, poor fit]
COc1ccc(/C=C/C(=O)Nc2cccnc2)cc1OC | inconclusive: 23.9 µM [inhibitor, single point]
Cc1ccc(OCc2cc(C(=O)NCc3cn4ccccc4n3)no2)cc1C | inconclusive: 30.1 µM [inhibitor, partial curve, poor fit]
O=C(NNC(=O)c1nn(-c2ccc(F)cc2)ccc1=O)c1ccc(Cl)cc1 | inconclusive: 30.1 µM [inhibitor, partial curve, poor fit]
Cc1ccccc1Cn1cc(NC(=O)c2nc3ncccn3n2)cn1 | inconclusive: 23.9 µM [inhibitor, single point]
Nc1c(-c2ccc(Cl)cc2)cnn1-c1ccccc1 | active: 4.78 µM
Cc1cccc(OCC(=O)Nc2ccccc2C(F)(F)F)c1 | inconclusive: 23.9 µM [inhibitor, partial curve, poor fit]
CCOC(=O)N1CCc2c(sc3c2c(=O)n(CCc2ccccc2)c(=O)n3Cc2c(F)cccc2Cl)C1 | inactive
CCc1ccc(CNC(=O)CN2CCSc3ccccc32)cc1 | inconclusive: 37.9 µM [inhibitor, partial curve, poor fit]
CCN1CCN(C(=S)c2ccc(Cl)cc2)CC1 | inconclusive: 13.5 µM [inhibitor, partial curve, poor fit]
